# Assay results published in a collection of fitness landscapes (doi:10.1126/science.1257360).
# This is one part of the list.
# B1: PhoQ; a variant is named by its letters at X, in order, P23837 (parent)
# chain: MKKLLRLFFPLSLRVRFLLATAAVVLVLSLAYGMVALIGYSVSFDKTTFRLLRGESNLFYTLAKWENNKLHVELPENIDKQSPTMTLIYDENGQLLWAQRDVPWLMKMIQPDWLKSNGFHEIEADVNDTSLLLSGDHSIQQQLQEVREDDDDAEMTHSVAVNVYPATSRMPKLTIVVVDTIPVELKSSYMVWSWFIYVLSANLLLVIPLLWVAAWWSLRPIEALAKEVRELEEHNRELLNPATTRELTSLVRNLNRLLKSERERYDKYRTTLTDLTHSLKTPLXXLQXXLRSLRSEKMSVSDAEPVMLEQISRISQQIGYYLHRASMRGGTLLSRELHPVAPLLDNLTSALNKVYQRKGVNISLDISPEISFVGEQNDFVEVMGNVLDNACKYCLEFVEISARQTDEHLYIVVEDDGPGIPLSKREVIFDRGQRVDTLRPGQGVGLAVAREITEQYEGKIVAGESMLGGARMEVIFGRQHSAPKDE
# Variants of: B1
# Assay: enrichment ratio after two sorts for PhoP signalling (ratio (wild type AVST 3.29)); higher = more functional
# Details: with PhoP (E. coli)
row,Variant,enrichment ratio
1,NAGP,≤ 0.25
2,DRVL,≤ 0.25
3,YMDN,≤ 0.25
4,LMHV,≤ 0.25
5,ITIW,≤ 0.25
6,WPGD,≤ 0.25
7,MHKH,≤ 0.25
8,NNYL,≤ 0.25
9,FMMP,≤ 0.25
10,APYQ,≤ 0.25
11,FYEC,≤ 0.25
12,KQQS,≤ 0.25
13,NHEY,≤ 0.25
14,PIVI,≤ 0.25
15,YQVH,≤ 0.25
16,NECY,≤ 0.25
17,RPTT,≤ 0.25
18,TFTS,6.18
19,DQGW,≤ 0.25
20,RIML,≤ 0.25
21,WRGW,≤ 0.25
22,DLLA,≤ 0.25
23,TISK,3.65
24,KCDE,≤ 0.25
25,IRVD,≤ 0.25

row,Variant,enrichment ratio
1,LCEP,≤ 0.25
2,YNVE,≤ 0.25
3,RPVM,≤ 0.25
4,AQFF,≤ 0.25
5,QPWW,≤ 0.25
6,ISRE,≤ 0.25
7,SYGS,≤ 0.25
8,RTAS,≤ 0.25
9,AMEH,≤ 0.25
10,GWHV,≤ 0.25
11,YVIT,≤ 0.25
12,YAAA,≤ 0.25
13,QMQS,≤ 0.25
14,DPHW,≤ 0.25
15,TSHR,≤ 0.25
16,GGIW,≤ 0.25
17,QYKW,≤ 0.25
18,GGVN,≤ 0.25
19,PKRK,≤ 0.25
20,FTEE,≤ 0.25
21,KKAM,≤ 0.25
22,QAVP,≤ 0.25
23,DRSD,≤ 0.25
24,QYDM,≤ 0.25
25,RRYG,≤ 0.25

row,Variant,enrichment ratio
1,QESE,≤ 0.25
2,YLNK,≤ 0.25
3,NRKV,≤ 0.25
4,EMPC,≤ 0.25
5,VHVW,≤ 0.25
6,KFWK,≤ 0.25
7,TAPW,≤ 0.25
8,QPYR,≤ 0.25
9,IEYH,≤ 0.25
10,TSQW,≤ 0.25
11,KKQS,≤ 0.25
12,PCYM,≤ 0.25
13,RCTY,≤ 0.25
14,MLNH,≤ 0.25
15,ALWP,≤ 0.25
16,SKQE,≤ 0.25
17,VYDV,≤ 0.25
18,TYKK,≤ 0.25
19,DNFL,≤ 0.25
20,SMNM,≤ 0.25
21,AMEL,≤ 0.25
22,SKCY,16.7
23,RGDD,≤ 0.25
24,QGGF,18.4
25,QPKF,≤ 0.25

row,Variant,enrichment ratio
1,APLA,≤ 0.25
2,LGNA,≤ 0.25
3,PCYW,≤ 0.25
4,NHRT,≤ 0.25
5,RWIY,≤ 0.25
6,KAIP,≤ 0.25
7,QFKF,≤ 0.25
8,PRTG,≤ 0.25
9,EMMI,≤ 0.25
10,NFSK,≤ 0.25
11,APKP,≤ 0.25
12,LIDY,≤ 0.25
13,WKFH,≤ 0.25
14,AEAM,5.95
15,FYMN,≤ 0.25
16,LTYD,≤ 0.25
17,PDYA,≤ 0.25
18,GPFI,≤ 0.25
19,LFTI,≤ 0.25
20,NLVN,≤ 0.25
21,TEQS,7.71
22,SNDN,≤ 0.25
23,TTTT,12.1
24,DYWM,≤ 0.25
25,WRMP,≤ 0.25

row,Variant,enrichment ratio
1,RHAP,≤ 0.25
2,FKEE,≤ 0.25
3,GRLI,≤ 0.25
4,THNR,≤ 0.25
5,GTNL,≤ 0.25
6,MYSS,≤ 0.25
7,RLLP,≤ 0.25
8,NFTI,≤ 0.25
9,DGII,≤ 0.25
10,VNIF,≤ 0.25
11,FGLP,≤ 0.25
12,LGFF,≤ 0.25
13,LVSC,≤ 0.25
14,MNPV,≤ 0.25
15,NGHK,≤ 0.25
16,HTKM,≤ 0.25
17,TDRC,≤ 0.25
18,SQVF,8.78
19,LWYK,≤ 0.25
20,KDRY,≤ 0.25
21,ILCL,≤ 0.25
22,WSLK,≤ 0.25
23,TFLN,≤ 0.25
24,IMVY,≤ 0.25
25,VNHI,≤ 0.25

row,Variant,enrichment ratio
1,NCEP,≤ 0.25
2,SQTQ,11.3
3,LMEP,≤ 0.25
4,WIYF,≤ 0.25
5,IWSS,≤ 0.25
6,EATL,≤ 0.25
7,KEAH,≤ 0.25
8,PMMQ,≤ 0.25
9,IRTV,≤ 0.25
10,FYFE,≤ 0.25
11,IFYH,≤ 0.25
12,IQYM,≤ 0.25
13,RVNG,≤ 0.25
14,FVFC,≤ 0.25
15,HPRG,≤ 0.25
16,IDPW,≤ 0.25
17,NKHQ,≤ 0.25
18,TTEI,9.07
19,PNLN,≤ 0.25
20,YAFN,≤ 0.25
21,PHWC,≤ 0.25
22,DAAI,≤ 0.25
23,WKGQ,≤ 0.25
24,HPLA,≤ 0.25
25,MTVT,≤ 0.25

row,Variant,enrichment ratio
1,QMGI,≤ 0.25
2,EGEM,≤ 0.25
3,PNMD,≤ 0.25
4,FVTF,≤ 0.25
5,DYDY,≤ 0.25
6,LHVQ,≤ 0.25
7,ITDL,≤ 0.25
8,TNLS,3.63
9,HYHS,≤ 0.25
10,DREA,≤ 0.25
11,TEAS,16.2
12,RAPM,≤ 0.25
13,RWQT,≤ 0.25
14,FFAI,≤ 0.25
15,GQHS,≤ 0.25
16,ECIP,≤ 0.25
17,NNMC,≤ 0.25
18,WGIW,≤ 0.25
19,DEWK,≤ 0.25
20,HPAD,≤ 0.25
21,VPQI,≤ 0.25
22,AYND,≤ 0.25
23,SFCQ,2.09
24,EGCL,≤ 0.25
25,KGSW,≤ 0.25

row,Variant,enrichment ratio
1,MGRG,≤ 0.25
2,SRCP,≤ 0.25
3,WRRI,≤ 0.25
4,FPWM,≤ 0.25
5,SGSQ,12.9
6,ICCF,≤ 0.25
7,RAIW,≤ 0.25
8,WQNF,4.13
9,WILS,≤ 0.25
10,NDDF,≤ 0.25
11,TNSL,12.2
12,YGLM,13
13,ICFG,≤ 0.25
14,RQSN,≤ 0.25
15,YQFQ,≤ 0.25
16,IQPY,≤ 0.25
17,STQG,2.47
18,FFVR,≤ 0.25
19,FIAY,≤ 0.25
20,FPEF,≤ 0.25
